Where “and” joins values, the source holds several entries; their conditions need not be identical. Equal entries are not always repeated.
T1: human interferon γ (human, UniProt P01579 24-166, limits assumed)
T1 sequence (looked up): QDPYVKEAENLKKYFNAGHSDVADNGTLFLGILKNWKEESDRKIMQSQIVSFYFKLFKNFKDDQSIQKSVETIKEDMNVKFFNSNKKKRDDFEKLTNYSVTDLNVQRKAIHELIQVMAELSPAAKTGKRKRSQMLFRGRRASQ


Columns and labels:
[1] = molecular target: T1, human interferon γ; assay: cell-based or functional assay
[2] = molecular target: T1, human interferon γ; assay: BiaCore (SPR), fusion from CHO supernatant captured by anti-human Fc, human IFNγ injected
Protocol: The affinity of the interferon γ-binding fusion polypeptides for human interferon γ was measured using a BlAcore 2000™ or BlAcore 3000™, as described in WO 00/75319, herein specifically incorporated by reference in its entirety. Briefly, the IFNγ-specific polypeptides were produce as small-scale supernatants by transiently transfecting CHO cells, using Lipofectamine/LIPO Plus® (Life Technologies), with DNA constructs encoding the proteins. Supernatants were collected after 72 hours and protein expression was measured by Western blotting with anti-human Fc HRP-conjugated antibody (Promega) and visualized by ECL (Pierce). Briefly, 5.4×10⁵ CHOK1 cells per well of a 6 well tissue culture dish were transfected using 1 μg of DNA and 5 μl of lipofectamine in OptiMEM™ (Gibco). After 12 h the cells were washed with OptiMEM™ and 2 ml of CHO serum free medium (Gibco) was added. After 60 h and 72 h the media was collected and centrifuged to remove cellular debris. For the BiaCore™ analysis, the IFNγ-binding fusion polypeptides from the transiently transfected CHO supernatants were captured onto the chip surface using anti-human Fc antibodies. Various concentrations of human IFNγ are injected over the surface and the time course of association and dissociation are monitored. Kinetic analyses using BIA evaluation software were performed to obtain the association and dissociation rate constants.

| IC50 (M), GAS-luciferase bioassay in HEK293 cells [1] | IC50 (M), ISRE-luciferase bioassay in HEK293 cells [1] | Kd [2] | Binder |
| --- | --- | --- | --- |
| 2.02e-10 M and 3.8e-10 M | 7.2e-11 M | 0.0129 nM | hIFNγRα(1-239).TG.hIFNγRβ.SG.hFc (Fc fusion, Dimeric construct from CHO supernatant; also called pCTR 2842) EMGTADLGPSSVPTPTNVTIESYNMNPIVYWEYQIMPQVPVFTVEVKNYGVKNSEWIDACINISHHYCNISDHVGDPSNSLWVRVKARVGQKESAYAKSEEFAVCRDGKIGPPKLDIRKEEKQIMIDIFHPSVFVNGDEQEVDYDPETTCYIRVYNVYVRMNGSEIQYKILTQKEDDCDEIQCQLAIPVSSLNSQYCVSAEGVLHVWGVTTEKSKEVCITIFTGSQLPAPQHPKIRLYNAEQVLSWEPVALSNSTRPVVYRVQFKYTDSKWFTADIMSIGVNCTQITATECDFTAASPSAGFPMDFNVTLRLRAELGALHSAWVTMPWFQHYRNVTVGPPENIEVTPGEGSLIIRFSSPFDIADTSTAFFCYYVHYWEKGGIQQVKGPFRSNSISLDNLKPSRVYCLQVQAQLLWNKSNIFRVGHLSNISCYETMADASTELQSG[… human IgG1 Fc …] |
| 4.52e-10 M and 4e-10 M | 1.18e-10 M and 1.54e-10 M |  | hIFNγRα(1-239).TG.hIFNγRβ(C174S).SG.hFc (Fc fusion) EMGTADLGPSSVPTPTNVTIESYNMNPIVYWEYQIMPQVPVFTVEVKNYGVKNSEWIDACINISHHYCNISDHVGDPSNSLWVRVKARVGQKESAYAKSEEFAVCRDGKIGPPKLDIRKEEKQIMIDIFHPSVFVNGDEQEVDYDPETTCYIRVYNVYVRMNGSEIQYKILTQKEDDCDEIQCQLAIPVSSLNSQYCVSAEGVLHVWGVTTEKSKEVCITIFTGSQLPAPQHPKIRLYNAEQVLSWEPVALSNSTRPVVYRVQFKYTDSKWFTADIMSIGVNCTQITATECDFTAASPSAGFPMDFNVTLRLRAELGALHSAWVTMPWFQHYRNVTVGPPENIEVTPGEGSLIIRFSSPFDIADTSTAFFSYYVHYWEKGGIQQVKGPFRSNSISLDNLKPSRVYCLQVQAQLLWNKSNIFRVGHLSNISCYETMADASTELQSG[… human IgG1 Fc …] |
